Screen size: about 200,000 compounds; about 10 (0.005%) were called active. Inconclusive results, whose numbers are uncertain, are shown with a selection of clear calls. Calls come from the whole dose curve; as a rule, active = well fitted inhibition curve with a large enough effect; inconclusive = small, poorly fitted or top-dose-only effect, or effect the other way, or another doubt; inactive = no such curve, though single readings can be large or run the other way. Potencies of inconclusive entries are doubtful fits and often do not repeat.
These compounds were tested against Lysosomal alpha-glucosidase (Homo sapiens) (UniProt P10253) (assay: qHTS Assay for Inhibitors of Human alpha-Glucosidase as a Potential Chaperone Treatment of Pompe Disease). Details: purified human GAA, 4-MU-alpha-glucoside fluorescence; activity change, negative = inhibition: at 76.9 µM (top of the series) unless noted.
Outline: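 AC50 values come from Hill fits of compound titrations (up to 77 uM) against 4 nM human enzyme. Substrate 4-methylumbelliferyl-alpha-D-pyranoside at 400 uM, pH 5.0 citrate buffer, 20 min room temperature; fluorescence Ex 365/Em 440 after alkaline stop.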
Potency is the fitted concentration of half-maximal effect; tags give direction and shape of the fitted curve.
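Throughout, for activity change, negative = inhibition: plate controls were uninhibited enzyme wells for no effect and no-enzyme background for full effect.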

Potency, inconclusive:
Cc1c(C)c2cc(Cl)c(O)c(CN3CCN(C)CC3)c2oc1=O 25.1 µM [activator, partial curve]
COC(=O)c1ccc(NC(=S)NCCCn2ccnc2)cc1 6.31 µM [inhibitor, partial curve]
O=C(O)[C@@H]1Cc2ccccc2N1 0.355 µM [inhibitor, full curve, poor fit]
CCn1c(=O)c([N+](=O)[O-])c(NCCc2ccccc2)c2ccccc21 56.2 µM [inhibitor, single point]
Cc1ccc(NC(=O)CCc2ccc(S(=O)(=O)NC3CCCCC3)cc2)cc1 50.1 µM [inhibitor, partial curve, poor fit]
CCOC(=O)c1cc2c(=O)n3ccccc3nc2n(Cc2ccco2)c1=NC(=O)c1ccccc1OC 31.6 µM [activator, partial curve]
Cc1nc(SCC#N)c2c(C)c(C)sc2n1 0.398 µM [inhibitor, single point]
O=C(Nc1ccccc1)Nc1ccc(Cl)c([N+](=O)[O-])c1 10 µM [inhibitor, partial curve]
COC(=O)c1cnn(-c2ccccc2)c1-n1cccc1C=O 3.16 µM [inhibitor, partial curve, poor fit]
C=CCNc1oc(/C=C/c2ccccc2)nc1C#N 35.5 µM [activator, partial curve]
CN(C)c1ccc(/C=N/NC(=O)CCc2nc3ccccc3[nH]2)cc1 50.1 µM [activator, single point]
Cc1ccc(-c2cc(-c3ccc(C)o3)nc(N)c2C#N)cc1 17.8 µM [activator, partial curve]
Cc1ccc2c(CN3C(=O)NC(C)(c4ccc5c(c4)OCO5)C3=O)cc(=O)oc2c1 (configuration not stated) 0.158 µM [inhibitor, full curve, poor fit]
O=C(Nc1ccc(Oc2cccc(C(F)(F)F)c2)nc1)c1cccs1 28.2 µM [inhibitor, partial curve]
COc1ccccc1-c1nnc(SCC(=O)N2CC(C)CC(C)C2)o1 (configuration not stated) 11.2 µM [inhibitor, single point]
Cc1cc(C)cc(NC(=O)C(OC(=O)C2=COCCO2)c2ccccc2)c1 (configuration not stated) 11.2 µM [inhibitor, single point]
COc1ccc(N(C(=O)CNC(=O)c2cccs2)C(C(=O)NCC2CCCO2)c2ccccc2)cc1OC (configuration not stated) 0.178 µM [inhibitor, full curve, poor fit]
CC(C)CCNC(=O)Cc1ccc(Nc2nc(=S)[nH]c3ccccc23)cc1 56.2 µM [activator, single point]
CCOC(=O)/C(C)=N/NC(=O)c1cccc([N+](=O)[O-])c1 0.282 µM [activator, partial curve, poor fit]
O=C(O)CSc1nnc(Nc2ccccc2)n1-c1ccccc1 50.1 µM [inhibitor, single point]
CC(=O)Nc1ccc(S(=O)(=O)N2CCN(Cc3cccs3)CC2)cc1 1.78 µM [inhibitor, full curve]
CN(/N=C/c1ccc(Br)o1)C1=NS(=O)(=O)c2ccccc21 44.7 µM [activator, single point]
COc1ccc(OC)c(-c2cc(C3CCN(c4cc(Cl)nc(N)n4)CC3)[nH]n2)c1 39.8 µM [inhibitor, single point]
COc1ccc(C)cc1S(=O)(=O)Nc1cccnc1 11.2 µM [inhibitor, single point]
CC(=O)Nc1nc2n(n1)C(c1ccc(Cl)cc1)C=C(C)N2 (configuration not stated) 35.5 µM [activator, partial curve]
O=S(=O)(c1ccc(Cl)cc1)N1CCN(c2nc(-c3cccs3)nc3ccccc23)CC1 0.282 µM [inhibitor, full curve]
c1ccc(-c2cc3c(N4CCCC4)ncnc3s2)cc1 31.6 µM [activator, single point]
CC1Cc2ccccc2N1C(=O)CSc1nnc(Cc2ccccc2)n1CCc1ccccc1 (configuration not stated) 20 µM [inhibitor, partial curve]

Activity change, negative = inhibition, inconclusive:
C=CCc1cccc2cc(C(=O)NCCOC)c(=O)oc12 23.7% [activator]
O=C1N(Cc2cccnc2)C[C@@H]2C[C@@H](c3ccc(-c4ccccc4)cc3)N3CCC[C@@]123 -15.7% [inhibitor]
O=C(NC1CCN(Cc2ccccc2)CC1)c1ccc2c(c1)[nH]c(=O)n2Cc1ccc(F)cc1 16.3% [activator]
N#C/C(=C\c1cccs1)C(=O)Nc1nccs1 13% [activator]
Cc1cc(C)nc(SCC(=O)Nc2ccc(N3CCOCC3)c(Cl)c2)n1 -19.1% [inhibitor]
Cc1cc(C)nc(SCc2nc(N)nc(-c3ccccc3O)n2)n1 -17.9% [inhibitor]
CC1CN(Cc2c(O)ccc3c(=O)c(-c4ccccc4)coc23)CC(C)O1 (configuration not stated) 15.5% [activator]
Cc1ccc(SCCC(=O)Nc2cccc(N(C)S(C)(=O)=O)c2)cc1 -16.8% [inhibitor]
CCCCNC(=S)N(C)/N=C/c1c(F)c(F)c(F)c(F)c1F -21.2% [inhibitor]
CCN(CC)CCCn1c(=S)[nH]c2ccc(Cl)cc2c1=O -15.2% [inhibitor]

Activity change, negative = inhibition, inactive:
Cc1nc2nc(-c3cccs3)cn2nc1C -8.08%
Cc1ccc(C(=O)N2CCc3ccccc32)o1 -1.29%
Nc1ccc(Nc2ccccc2)c(S(=O)(=O)O)c1 -2.83%
CN1CCc2nc(SCC(=O)Nc3ccc(OC(F)(F)F)cc3)c(C#N)c(-c3cccs3)c2C1 -9.42%

— PubChem BioAssay AID1466 (National Center for Advancing Translational Sciences (NCATS), 2008)
